# From PMC4336329 (PLoS ONE, 2015)
# Hit rate of the full screen: of about 310,000 compounds, about 2,200 (0.71%) showed an effect of 50% or more. Effects have a minus sign here. Some of the results follow.
# Molecular target: human ether-à-go-go-related gene (hERG) potassium channel (human, UniProt Q12809)
# Experiment: primary screen, population patch clamp on CHO cells stably expressing hERG
# Chain of human ether-à-go-go-related gene (hERG) potassium channel (Q12809 whole entry, looked up): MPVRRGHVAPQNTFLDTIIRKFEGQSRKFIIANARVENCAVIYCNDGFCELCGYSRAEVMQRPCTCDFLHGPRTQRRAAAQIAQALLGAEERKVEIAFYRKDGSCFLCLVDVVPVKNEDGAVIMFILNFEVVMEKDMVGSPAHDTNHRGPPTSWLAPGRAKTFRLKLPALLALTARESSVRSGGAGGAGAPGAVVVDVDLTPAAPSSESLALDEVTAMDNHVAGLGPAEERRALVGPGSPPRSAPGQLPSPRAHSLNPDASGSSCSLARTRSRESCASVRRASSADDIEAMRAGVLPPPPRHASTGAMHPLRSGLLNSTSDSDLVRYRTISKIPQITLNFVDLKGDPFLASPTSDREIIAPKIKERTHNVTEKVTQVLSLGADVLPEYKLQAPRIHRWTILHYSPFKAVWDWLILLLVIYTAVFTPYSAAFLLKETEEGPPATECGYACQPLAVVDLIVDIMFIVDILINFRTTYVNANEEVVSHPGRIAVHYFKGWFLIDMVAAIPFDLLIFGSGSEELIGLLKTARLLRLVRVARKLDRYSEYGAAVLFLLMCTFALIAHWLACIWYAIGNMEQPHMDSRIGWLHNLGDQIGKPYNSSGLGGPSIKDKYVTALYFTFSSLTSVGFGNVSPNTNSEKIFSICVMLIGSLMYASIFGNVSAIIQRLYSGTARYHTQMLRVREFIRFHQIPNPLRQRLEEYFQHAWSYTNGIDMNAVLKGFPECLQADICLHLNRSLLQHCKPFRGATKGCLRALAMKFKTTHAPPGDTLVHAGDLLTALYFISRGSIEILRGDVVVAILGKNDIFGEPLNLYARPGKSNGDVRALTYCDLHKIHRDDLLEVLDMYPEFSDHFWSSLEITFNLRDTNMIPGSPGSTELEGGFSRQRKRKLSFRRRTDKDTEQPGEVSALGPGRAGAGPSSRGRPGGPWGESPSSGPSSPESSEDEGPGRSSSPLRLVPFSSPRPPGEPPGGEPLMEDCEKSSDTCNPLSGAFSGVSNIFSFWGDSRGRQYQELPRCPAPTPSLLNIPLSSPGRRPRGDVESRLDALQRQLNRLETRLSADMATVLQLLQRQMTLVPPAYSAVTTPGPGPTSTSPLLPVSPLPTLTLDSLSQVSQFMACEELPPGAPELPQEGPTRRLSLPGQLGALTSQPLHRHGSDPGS
row,Structure (SMILES),"hERG current change (%, negative = inhibition) at 1uM [%]"
1,Cc1ccc(C)c(NS(=O)(=O)c2ccc3oc(=O)ccc3c2)c1,7.94
2,O=C(Cc1cccs1)NCc1cn2ccccc2n1,8.86
3,O=C(OCCOc1ccc(Br)cc1)c1cnccn1,-2.31
4,COCCC(=O)N1CCCC(C(=O)c2ccc(Oc3ccccc3)cc2)C1 (stereo not drawn),-37
5,O=C(/C(=C(\O)c1ccccc1)c1nc2ccccc2[nH]1)c1ccccc1,2.7
6,COCCCNC(=S)N(Cc1ccccc1)Cc1ccccc1,10.6
7,COc1ccc(C2c3ccc4ccccc4c3Oc3ncn(CCN4CCOCC4)c(=N)c32)cc1OC (stereo not drawn),10.9
8,CN(C)c1nc(N)nc(-c2nc3ccccc3s2)n1,-2.08
9,O=C(CSc1ccsc1[N+](=O)[O-])N1CCN(c2ccccn2)CC1,11.5
10,O=C(Nc1cc(S(=O)(=O)N2CCCCC2)ccc1O)c1ccccc1NS(=O)(=O)c1ccc(F)c(F)c1,4.15
11,O=C(c1ccco1)N1CCN(C(=O)C2CCCN(S(=O)(=O)c3cccc4nsnc34)C2)CC1 (stereo not drawn),5.75
12,N#Cc1c(-c2ccccc2)[nH]c(=O)[nH]c1=O,13.6
13,O=C(Nc1cccc(NC(=O)c2cccs2)c1)c1ccc2c(c1)OCO2,-0.492
14,Cc1cc2n(n1)SC(Nc1cccc3ccccc13)N2 (stereo not drawn),-8.91
15,COc1ccc(-n2ncc3c2CC(C)(C)CC3NC(=O)c2ocnc2C)cc1 (stereo not drawn),-12.9
16,CCCCN(CCCC)CCNC(=O)c1cn(CC)c2ccc(S(=O)(=O)N(C)C3CCCCC3)cc2c1=O,-84.2
17,COc1ccccc1OCc1nnc(SCC(=O)NCc2ccco2)n1Cc1ccco1,-2.19
18,COc1ccc(OC)c(C(=O)COC(=O)c2c(OC)cccc2OC)c1,6.21
19,Cc1cc(S(=O)(=O)N2CCOCC2)ccc1OCC(=O)Nc1ccc(F)c(Cl)c1,17.7
20,COC(=O)CN(C)C(=O)c1ccc2nc(Cc3cccc(Cl)c3)oc2c1,23.7
21,O=C(COc1ccc(Br)cc1CNCCCN1CCOCC1)Nc1ccccc1,-11.3

row,Structure (SMILES),"hERG current change (%, negative = inhibition) at 1uM [%]"
1,CCCCNC(=S)N(Cc1ccco1)Cc1cc2cc3c(cc2[nH]c1=O)OCCO3,11.8
2,O=C(CCn1cccc1)Nc1ccc(F)cc1,-3.51
3,CCN(CC)CC(=O)Nc1nc(-c2ccc(Cl)cc2)cs1,5.31
4,CCCC(C(=O)NCCC(C)C)N(Cc1ccccc1)C(=O)c1snc(C(N)=O)c1N (stereo not drawn),18.1
5,O=Cc1cn[nH]c1-c1ccccc1,18.8
6,O=C1/C(=C\c2cccc(O)c2O)SC(=S)N1Cc1ccccc1,12.6
7,COc1ccc(N(CC(=O)NCc2ccc(F)cc2)C(=O)CCC(=O)Nc2ccccn2)cc1,5
8,Cc1sc2nc(COC(=O)Cc3ccccc3)[nH]c(=O)c2c1C,4.02
9,Cc1cccc(-c2nc3sc(C)cc3c(=O)o2)c1,28.8
10,CCOC(=O)CN(C(=O)CN1CCC(n2nnc3cc(C)ccc32)CC1)c1ccccc1,-23.3
11,NC(=O)C1(N2CCCCC2)CCN(CC(=O)Nc2cc(Cl)ccc2Cl)CC1,-55.3
12,CC(C)NC(=O)C(=O)NCCC1CCCCN1S(=O)(=O)c1cccs1 (stereo not drawn),8.63
13,CCC(C)Nc1nc(Cl)nc(N(C#N)CN2C(=O)c3ccccc3S2(=O)=O)n1 (stereo not drawn),12
14,Cc1ccc(S(=O)(=O)N2CCC(C(=O)Nc3ccc4c(c3)OCO4)CC2)cc1,-1.17
15,CCCOc1c(Cl)cc(C(=O)NC)cc1OC,13
16,Cc1cccc(Cc2nnc(CCC(=O)N(CC3CC3)CC3CCCO3)o2)c1 (stereo not drawn),11.6
17,CC(NC(=O)C1CCN(S(=O)(=O)c2ccc3nc4c(c(C(=O)O)c3c2)CCCC4)CC1)c1ccccc1 (stereo not drawn),5.92
18,CC(C)(C)NC(=O)CN(CC1CCCO1)C(=O)CNS(=O)(=O)c1ccc(F)cc1 (stereo not drawn),21.7
19,Cc1cccc(COc2ccc(/C=N/NC(=O)c3nnn(-c4nonc4N)c3COc3ccc(F)cc3)cc2)c1,8.97
20,CC1(C)CC(=O)C/C(=N/NC(=O)COc2ccc3ccccc3c2Br)C1,8.33
21,COc1ccc(CCC(C)NCc2ccc(C(F)(F)F)cc2)cc1 (stereo not drawn),-22.6
